The other results are listed elsewhere or left out. Single values are uncertain, as repeats are few or missing.
Columns and labels:
Test in all cases: cell count relative to DMSO control; melanoma cells; higher = more viable cells
Conditions in all cases: library dose: low library concentration; 72 h
MZ2-MEL = tested on: MZ2-MEL
MeWo = tested on: MeWo
RPMI7951 = tested on: RPMI7951
RVH-421 = tested on: RVH-421
SkMel28 = tested on: SkMel28
SkMel30 = tested on: SkMel30
SkMel5 = tested on: SkMel5
UACC257 = tested on: UACC257
UACC62 = tested on: UACC62
SkMel2 = tested on: SkMel2
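Also: cell number obtained by counting DAPI-stained nuclei in high-throughput microscope images with image analysis software, screen run in 1,536-well plates.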

| Compound | cell count (MZ2-MEL) [%] | cell count (MeWo) [%] | cell count (RPMI7951) [%] | cell count (RVH-421) [%] | cell count (SkMel28) [%] | cell count (SkMel30) [%] | cell count (SkMel5) [%] | cell count (UACC257) [%] | cell count (UACC62) [%] | cell count (SkMel2) [%] |
| --- | --- | --- | --- | --- | --- | --- | --- | --- | --- | --- |
| C[C@]1(c2nc3c(C(N)=O)cccc3[nH]2)CCCN1 [Veliparib] + c1cc(-c2cnn3cc(-c4ccc(OCCN5CCCCC5)cc4)cnc23)ccn1 [Dorsomorphin] (first compound 1.4 µM, partner dose 0.4 µM) | 97 | 97.1 | 82.4 | 82.9 | 89.6 | 94.6 | 89 | 85 | 88.4 | – |
| C=CCn1c(=O)c2cnc(Nc3ccc(N4CCN(C)CC4)cc3)nc2n1-c1cccc(C(C)(C)O)n1 + CO[C@@H]1[C@H](N(C)C(=O)c2ccccc2)C[C@H]2O[C@]1(C)n1c3ccccc3c3c4c(c5c6ccccc6n2c5c31)C(=O)NC4 [Midostaurin] (first compound 0.02 µM, partner dose 0.08 µM) | 91.8 | 78.9 | 70.2 | 78.6 | 102 | 76.5 | 101 | 98.6 | 88.5 | 71.9 |
| C[C@]1(c2nc3c(C(N)=O)cccc3[nH]2)CCCN1 [Veliparib] + CCCCCCCCCCCC1=C(O)C(=O)C=C(O)C1=O [Embelin] (first compound 1.4 µM, partner dose 1.2 µM) | 93.9 | 92.5 | 96.2 | 105 | 86.4 | 112 | 89.9 | 83.6 | 103 | – |
| CO[C@@H]1[C@H](N(C)C(=O)c2ccccc2)C[C@H]2O[C@]1(C)n1c3ccccc3c3c4c(c5c6ccccc6n2c5c31)C(=O)NC4 [Midostaurin] + CC(C)CCN1c2nc(Nc3cc(F)c(O)c(F)c3)ncc2N(C)C(=O)C1C [BID1870] (first compound 0.08 µM, partner dose 0.2 µM) | 98.5 | 80.2 | 86.2 | 105 | 94.3 | 108 | 82.2 | 90.7 | 88.4 | – |
| NC(=O)Nc1cc(-c2cccc(F)c2)sc1C(=O)N[C@H]1CCCNC1 + Cc1cc([N+](=O)[O-])ccc1NS(=O)(=O)c1cc(Cl)ccc1Cl [FH535] (first compound 0.02 µM, partner dose 1 µM) | 93 | 88.3 | 93.8 | 130 | 86.4 | 98 | 95.3 | 88.4 | 81.9 | – |
| C[C@]1(c2nc3c(C(N)=O)cccc3[nH]2)CCCN1 [Veliparib] + Cn1nnc2c(C(N)=O)ncn2c1=O [temozolomide] (first compound 1.4 µM, partner dose 2 µM) | 94.4 | 93.7 | 79.7 | 98.1 | 64.9 | 90.8 | – | – | 74.6 | 110 |
| Cc1nc(Nc2ncc(C(=O)Nc3c(C)cccc3Cl)s2)cc(N2CCN(CCO)CC2)n1 [dasatanib] + c1cc(-c2cnn3cc(-c4ccc(OCCN5CCCCC5)cc4)cnc23)ccn1 [Dorsomorphin] (first compound 0.004 µM, partner dose 0.4 µM) | 74.6 | 99.2 | 92.2 | 97.2 | 74.6 | 77.4 | 86.7 | 81.1 | 89 | – |
| Cc1nc(Nc2ncc(C(=O)Nc3c(C)cccc3Cl)s2)cc(N2CCN(CCO)CC2)n1 [dasatanib] + O=C1NC(=O)/C(=C/c2ccc(-c3ccc(F)cc3O)o2)S1 [AS252424] (first compound 0.004 µM, partner dose 1 µM) | 77.8 | 95.3 | 87.8 | 453 | 90.6 | 113 | 94.6 | 101 | 94.5 | – |
| Cc1nc(Nc2ncc(C(=O)Nc3c(C)cccc3Cl)s2)cc(N2CCN(CCO)CC2)n1 [dasatanib] + O=C(Nc1ccccc1)c1cc([N+](=O)[O-])ccc1Cl [GW9662] (first compound 0.004 µM, partner dose 2 µM) | 80.7 | 89.5 | 78.9 | 84.3 | 91.6 | 111 | 96.7 | 87 | 98.5 | – |
| OCCn1cc(-c2cnc3nnn(Cc4ccc5ncccc5c4)c3n2)cn1 + O=C1NC(=O)/C(=C/c2ccc(-c3ccc(F)cc3O)o2)S1 [AS252424] (first compound 1 µM, partner dose 1 µM) | 92.1 | 92.7 | 87 | 94.4 | 97.8 | 76.6 | 91.3 | 86.3 | 92.5 | – |
| CO[C@@H]1[C@H](N(C)C(=O)c2ccccc2)C[C@H]2O[C@]1(C)n1c3ccccc3c3c4c(c5c6ccccc6n2c5c31)C(=O)NC4 [Midostaurin] + O=c1cc(-c2cccc3c2Sc2ccccc2S3)oc(N2CCOCC2)c1 [KU55933] (first compound 0.08 µM, partner dose 1 µM) | 88.1 | 74.8 | 80.1 | 89.4 | 102 | 117 | 90.4 | 83.9 | 88.6 | – |
| OCCn1cc(-c2cnc3nnn(Cc4ccc5ncccc5c4)c3n2)cn1 + O=c1cc(-c2cccc3c2Sc2ccccc2S3)oc(N2CCOCC2)c1 [KU55933] (first compound 1 µM, partner dose 1 µM) | 106 | 93.9 | 97.7 | 98.4 | 109 | 97.9 | 93.7 | 117 | 99.3 | – |
| NC(=O)Nc1cc(-c2cccc(F)c2)sc1C(=O)N[C@H]1CCCNC1 + O=C1NC(=O)/C(=C/c2ccc(-c3ccc(F)cc3O)o2)S1 [AS252424] (first compound 0.02 µM, partner dose 1 µM) | 107 | 91.3 | 93.9 | 114 | 110 | 90.9 | 110 | 96.9 | 114 | – |
| CO[C@@H]1[C@H](N(C)C(=O)c2ccccc2)C[C@H]2O[C@]1(C)n1c3ccccc3c3c4c(c5c6ccccc6n2c5c31)C(=O)NC4 [Midostaurin] + COc1ccc2c(c1)CCC1C2CCC2(C)C(NCCCCCCN3C(=O)C=CC3=O)CCC12 [U73122] (first compound 0.08 µM, partner dose 0.4 µM) | 96.7 | 77.7 | 95.4 | 97.7 | 92.4 | 85.7 | 84.5 | 92.7 | 85.3 | – |
| C[C@]1(c2nc3c(C(N)=O)cccc3[nH]2)CCCN1 [Veliparib] + N#Cc1c(O)c2c(-c3ccc(-c4ccccc4O)cc3)csc2[nH]c1=O [A769662] (first compound 1.4 µM, partner dose 2 µM) | 96.2 | 99.1 | 98.8 | 114 | 90.4 | 105 | 97.9 | 91.4 | 83.3 | – |
| Cc1nc(Nc2ncc(C(=O)Nc3c(C)cccc3Cl)s2)cc(N2CCN(CCO)CC2)n1 [dasatanib] + COCC[n+]1c2c(n(Cc3cnccn3)c1C)C(=O)c1ccccc1C2=O [YM155] (first compound 0.004 µM, partner dose 0.0004 µM) | 52 | 97 | 49.9 | 77.8 | 80.2 | 93 | – | – | 76.9 | 90.8 |
| Cc1nc(Nc2ncc(C(=O)Nc3c(C)cccc3Cl)s2)cc(N2CCN(CCO)CC2)n1 [dasatanib] + Nc1cccc2c1CN(C1CCC(=O)NC1=O)C2=O [lenalidomide] (first compound 0.004 µM, partner dose 1 µM) | 80.5 | 88.4 | 69 | 72.3 | 73.7 | 85.2 | – | – | 78.4 | 90.8 |
| Cc1nc(Nc2ncc(C(=O)Nc3c(C)cccc3Cl)s2)cc(N2CCN(CCO)CC2)n1 [dasatanib] + Cn1nnc2c(C(N)=O)ncn2c1=O [temozolomide] (first compound 0.004 µM, partner dose 2 µM) | 78.3 | 89.1 | 81.6 | 94.3 | 77.4 | 89.5 | – | – | 68.9 | 103 |
| NC(=O)Nc1cc(-c2cccc(F)c2)sc1C(=O)N[C@H]1CCCNC1 + COc1cc2ncnc(Nc3ccc(Oc4ccccc4)cc3)c2cc1OC [SrcI1] (first compound 0.02 µM, partner dose 2 µM) | 86.2 | 97.4 | 84.5 | 110 | 83.2 | 107 | 95.2 | 102 | 90.1 | – |
| NC(=O)Nc1cc(-c2cccc(F)c2)sc1C(=O)N[C@H]1CCCNC1 + CN(NC(=O)CC(=O)NN(C)C(=S)c1ccccc1)C(=S)c1ccccc1 [STA4783] (first compound 0.02 µM, partner dose 0.006 µM) | 110 | 101 | 93.6 | 82.7 | 103 | 110 | 130 | 116 | 93.8 | 105 |
| NC(=O)Nc1cc(-c2cccc(F)c2)sc1C(=O)N[C@H]1CCCNC1 + NCC(=O)Nc1ccc(-n2nc(C(F)(F)F)cc2-c2ccc3c(ccc4ccccc43)c2)cc1 [OSU03012] (first compound 0.02 µM, partner dose 1 µM) | 87.1 | 46.9 | 87.5 | 112 | 77.3 | 49.1 | 96.5 | 94.1 | 103 | 64.3 |
| Cc1nc(Nc2ncc(C(=O)Nc3c(C)cccc3Cl)s2)cc(N2CCN(CCO)CC2)n1 [dasatanib] + Cn1c(Nc2ccc(C(F)(F)F)cc2)nc2cc(Oc3ccnc(-c4ncc(C(F)(F)F)[nH]4)c3)ccc21 [CHIR265] (first compound 0.004 µM, partner dose 0.08 µM) | 80 | 68.2 | 46.4 | 83.1 | 68.5 | 67.9 | – | – | 55 | 99.2 |

— the supplement of paper PMC4604168 (melanoma cell lines)
